The list shows a part of the results. At the low end of the ranking the order means little. The protein was read in a cell extract, so binding may be indirect.
Biological target: T1, HNF4alpha2 (COS-7 nuclear extract) (UniProt P41235)
T1 sequence: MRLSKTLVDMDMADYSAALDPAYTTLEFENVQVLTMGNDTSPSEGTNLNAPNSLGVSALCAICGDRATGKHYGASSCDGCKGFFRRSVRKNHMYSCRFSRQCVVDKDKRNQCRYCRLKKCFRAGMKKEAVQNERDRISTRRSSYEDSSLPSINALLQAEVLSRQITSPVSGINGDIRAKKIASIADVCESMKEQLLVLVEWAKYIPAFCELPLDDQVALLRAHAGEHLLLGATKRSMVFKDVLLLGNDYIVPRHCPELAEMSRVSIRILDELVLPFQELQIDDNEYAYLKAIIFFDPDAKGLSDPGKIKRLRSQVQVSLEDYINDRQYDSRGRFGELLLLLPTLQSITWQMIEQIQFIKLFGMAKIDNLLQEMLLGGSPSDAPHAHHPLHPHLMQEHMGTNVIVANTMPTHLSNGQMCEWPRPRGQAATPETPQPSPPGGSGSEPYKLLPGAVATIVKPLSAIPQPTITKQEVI
Test: protein-binding microarray
Conditions: COS-7 nuclear extract on double-stranded Agilent 4x180k PBM; binding buffer, salt, pH and temperature not given; high values mean tight binding; double strand, one strand shown; sequences stand for … in …GCCTAGGGAGATTAGAGTATCGGTCGA

Sequence	binding signal (log2 normalized intensity)
CTCCACTACATTAGCAGCGCCACCAACCAT	4.07
GGAGATAACCCATCTGGGGAAAGTGCAAGG	-0.913
AGGGAGCAGAGTCCCAAGCATCTCTGAGCA	-1.08
AATCATGTAGCCAGATAAGAGCTATCAATG	-1.21
TGAACACAGTTCGAACAGTTGGCCACCTTT	1.09
AGGGTAGGAGAAGCTGGAAGGACAGCATTC	-1.05
TGAAGTTGGATAACCTTCTGCTGGATGCCC	0.018
CAGATTCCTGAGCCCAGATCCTCTAAATTC	-1.03
CCTTTCCCCTAAAGGAGGCAAGGTCCAAAC	3.47
GGGTTGGTATTACAAAGCAATCTACTTTTC	0.235
TATGGCTGGGATATCAGGTATTGCCCAGTA	0.611
TATTGAGAAGAAACCTTTGCCCAACAGGAT	1.12
CTAAAAAAATAGTTTCAACTTAACCCCAGT	3.05
CCCTGCCTAAACAAGGCAGACTTGGATTTT	0.122
CTTTCGCCCTTTGTCCTATGACTCTCTCAA	2.96
TGAGCACACACTCACGGACCCTGTTACCAC	-1.03
ACAGATGGTGACCAGACTACCTCTTTAGGC	-1.06
GACCTACTTAGTCTCCAGCCCCCAGAGGTC	4.4
TTGCTGTCTCTTCCACCTGGAATGCACTTG	1.5
CCCCGCGTCCGTGCACCCTTCCTCTGCAGC	1.33
GGGAGGTGTTTATCTTGTGGTTGGAATGTT	2.49
CCAAGAACAAACAAAAACCAAAAAAACTTA	-1.16
TGCTGTCTAGAAAGATTGCAGCAAGGAATT	-1.03
AGCATCTAAACCTCTGCACACAGGATGTTT	-1.27
GAAGTGGGGGTGAGTCAGTCCCCAGCAATT	1.33

Sequence	binding signal (log2 normalized intensity)
AGGGTGTGTAAAACAGGTGAAAGATAAGGG	-1.02
CTTCATGGACTCCTCTTATCTTCAGGTATC	1.14
TCTGGTCATGGCCCTGAGGGAGGAGAGAGG	-1.11
CGCCACAGCACCACCTGCTGGTCAGGAGAC	-1.14
GATGGAGATCATCCTGCAGTTCCTGATCTT	-0.826
TAAGAAAATGAAAACACAGCTCACCACCTA	-1.39
CTATTAGTGGTTAAGTTTTCGAGGAGTCAA	1.49
AAAGGCAGGCAGTGGAGGGCTCCCTTTAGT	-1.08
CAGATAATTCTTTGCTGTGGTAGGCTGTCC	2.29
CAGAGAAAGAGAGAGTTAGTTCTGCAAACA	-1.14
GCTGCAAAATTTGAACAAAAAAAGAAGAGC	-1.07
TGGATTGTGTTGCACTGTTTGCATAAAGTT	1.7
AGTCCTGACCTTGGACTCTGCCCTTGGCCT	5.81
TGTTACTTATAAATAATCTCAACCATACAA	-0.991
TGTGCACACTTAGAAAATGCCCTCAATCAA	1.54
CAAGGGTCAATCCTCTCTTTGGAATGTGCA	2.3
CCTAACCACCTGACCACAACACACAAGAAC	-1.11
TCTCACTGACTCACGGCAGCTTGTACCCTT	2.43
TGATAGCCATCTGGTGGACTTTGCTCTGCT	7.44
GGAAGACTTCATTCAGGTAGCAGGCCTCAG	-1.2
CCCACCAGGGGGAGGCTCAGAGTCTGTGGA	-1.02
CTTCATCAATCAGCCTGATACCAGATCCTT	-1.03
AGCTGGGAGACCACTGGTGTAAGCTCTGGA	-1.05
CAGACTTTCCCCCTATTTCCCTCTGTGCCC	3.5
GACAAACCAGTCCCATCTGTGCTCATTATT	-0.123

Sequence	binding signal (log2 normalized intensity)
ATTACTCCCACCGTGTGTGCACTTTAAATT	1.96
TCCTGGGTCCACCGTGCGCAAACACACCCA	-1.11
CCCCTTTGAAGTCTGCCCTCCATGTAACCC	3.54
TTAAATCCTCGAAGAGTTTGAACTATGTAC	3.73
TGGGATGAGAGAGCCCCTGTGATACAACGG	-1.21
AGGACTTCTAGAGTGAGCCATTTATCAGGG	-1.07
AGCTTGGGTTCACATTCCAGCTCTGTGACT	-1.2
GGAAAGGGGGTTTGCAACCTTTGATAACCT	2.12
CCAGATTCCAGCCTCCTGCTCTGGGCTTTC	-1.14
GGGTCCAAAGAACATTGCATTCCTTTGTTT	1.55
CAATCTGGATTGTACTGTGTCTTGATCTTG	1.9
ATGCTAAAGTCTACATTCTAGATGACCCCT	5.66
GACAAAGGCCGCGCCCGCCCGCGCCGGCCT	-1.14
ACAGCACTTTGGCGTGCTGTGTACTTTGAA	4.15
TTCTTGACCTGCGTAGCCCAAAGGTCAGTC	4.46
GACATTCCTTCAGCGTGAACTTTGACATGA	5.5
ACCTCCCCCCACACCATTAGAGAACATGTA	4.76
GACCAAGGGTCAGTTTGAAATTAGGCAATA	1.43
CATGGATTTAGATAAGAGGCAGTCCTGGCT	-1.11
TGCTGGGCCCATTTTCCCATGGTCTGTAGA	0.143
ATTTTACTCACCCCTTGCTGAGTGGAAAAA	0.782
CCTTTGGCCTTTACCTGTTACTTATAAATA	1.06
CTTTGTTCTCCGGGTTCTGCGCAGGGAGGA	0.767
